{"source": "the supplement of paper PMC8728848", "binders": {"B1": {"name": "BT3172pd (Bacteroides thetaiotaomicron) (protein)", "chain": "MLPLRAEHYYYKQISLKEGLPSNVRCILRDEQGFIWIGTKAGLGKFDGHQLKRYKHQANDPHSLLHNLIYQIAEDKQHNIWILTEKGIARYQQQSNNFTFPTDEEGNYITAYSFCLVPDGILFGGKDRIYKYSYKDSSLRLLQYFNANSFKITALSVWDSKTLLCCSRWTGLYLVDLQTGEHRRPPFDCGPEITSMITDSKNRIWIAPYSGGLRCYSRDGKLSASYTTHNSSLSNDIVLSLAEREEQLWIGTDGGGINILHPETGEISQLEYIPGRENYSLPANSILCLHNDYNNNVWAGSTCNGLISIREVSMKTYTDVVPGNDRGLSNGTVRSLYRQSPDSIWIGTDGGGINLFSPHTEKFTHYSSTWGDKVAFISGFTPGKLLISLFSKGVFVFNPATGEKQPFTIIDKETTTRLCNRGKSVNLYQNTPNTVLFLGDHIYQYHLKEKKFSTITEEEGKDIVGTLVPFDHQENLTYINDIKHIYELDDQTSRLKTVFECYTDTVISSVSHDEQGHFWIGSNFGLIHYDPVLKSRTLVPTNLFTEINMVLCDQKGKVWIGVDNMLFAYFIKEQKFVLFGESNGAIQNEYLPNARLVNEQGDAYIGGVKGMLRIDGQLLLNTSEMPELQLLDITINGESANHEWYNHPAKISVPWNSNISIRIMSREEDIFRQKIYRYQIEGLNNEYTESYNPELVIRSLLPGSYRIMASCTAKDGSWIPDQQVLELTVLPPWYRTHHHHHH"}}, "assay_in_all_cases": "glycan array binding signal (z-score within array); higher = stronger binding", "conditions_in_all_cases": "glycan notation: IUPAC condensed, linker removed", "key": {"Fuc(a1-2)Gal": {"biological_target": "Fuc(a1-2)Gal", "outline": "(§1)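 The Consortium for Functional Glycomics database supplied 3228 glycan arrays, of which those lacking an available protein sequence were dropped. The binding signal, a within-array Z-score, was averaged across arrays of the same protein sequence and across linkers. Negative scores can be read as non-binding.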"}, "Fuc(a1-2)Gal(b1-3)GalNAc": {"biological_target": "Fuc(a1-2)Gal(b1-3)GalNAc", "outline": "as §1"}, "[1]": {"biological_target": "Fuc(a1-2)Gal(b1-3)GalNAc(a1-3)[Fuc(a1-2)]Gal(b1-4)Glc", "outline": "as §1"}, "[2]": {"biological_target": "Fuc(a1-2)Gal(b1-3)GalNAc(a1-3)[Fuc(a1-2)]Gal(b1-4)GlcNAc", "outline": "as §1"}, "[3]": {"biological_target": "Fuc(a1-2)Gal(b1-3)GalNAc(b1-3)Gal", "outline": "as §1"}, "[4]": {"biological_target": "Fuc(a1-2)Gal(b1-3)GalNAc(b1-3)Gal(a1-4)Gal(b1-4)Glc", "outline": "as §1"}, "[5]": {"biological_target": "Fuc(a1-2)Gal(b1-3)GalNAc(b1-4)[Neu5Ac(a2-3)]Gal(b1-4)Glc", "outline": "as §1"}, "Fuc(a1-2)Gal(b1-3)GlcNAc": {"biological_target": "Fuc(a1-2)Gal(b1-3)GlcNAc", "outline": "as §1"}, "[6]": {"biological_target": "Fuc(a1-2)Gal(b1-3)GlcNAc(b1-2)Man(a1-3)[Fuc(a1-2)Gal(b1-3)GlcNAc(b1-2)Man(a1-6)]Man(b1-4)GlcNAc(b1-4)GlcNAc", "outline": "as §1"}, "[7]": {"biological_target": "Fuc(a1-2)Gal(b1-3)GlcNAc(b1-2)Man(a1-3)[Fuc(a1-2)Gal(b1-3)GlcNAc(b1-2)Man(a1-6)]Man(b1-4)GlcNAc(b1-4)[Fuc(a1-6)]GlcNAc", "outline": "as §1"}, "[8]": {"biological_target": "Fuc(a1-2)Gal(b1-3)GlcNAc(b1-3)Gal(b1-4)Glc", "outline": "as §1"}, "[9]": {"biological_target": "Fuc(a1-2)Gal(b1-3)GlcNAc(b1-3)GalNAc", "outline": "as §1"}, "[10]": {"biological_target": "Fuc(a1-2)Gal(b1-3)GlcNAc(b1-3)[Fuc(a1-2)Gal(b1-3)GlcNAc(b1-6)]GalNAc", "outline": "as §1"}, "[11]": {"biological_target": "Fuc(a1-2)Gal(b1-3)GlcNAc(b1-3)[Gal(b1-4)GlcNAc(b1-6)]Gal(b1-4)Glc", "outline": "as §1"}, "[12]": {"biological_target": "Fuc(a1-2)Gal(b1-3)GlcNAc(b1-3)[Neu5Ac(a2-6)Gal(b1-4)GlcNAc(b1-6)]Gal(b1-4)Glc", "outline": "as §1"}, "[13]": {"biological_target": "Fuc(a1-2)Gal(b1-3)GlcNAc6S", "outline": "as §1"}, "[14]": {"biological_target": "Fuc(a1-2)Gal(b1-3)[Fuc(a1-4)]GlcNAc", "outline": "as §1"}, "[15]": {"biological_target": "Fuc(a1-2)Gal(b1-3)[Fuc(a1-4)]GlcNAc(b1-2)Man(a1-3)[Fuc(a1-2)Gal(b1-3)[Fuc(a1-4)]GlcNAc(b1-2)Man(a1-3)]Man(b1-4)GlcNAc(b1-4)GlcNAc", "outline": "as §1"}, "[16]": {"biological_target": "Fuc(a1-2)Gal(b1-3)[Fuc(a1-4)]GlcNAc(b1-2)Man(a1-3)[Fuc(a1-2)Gal(b1-3)[Fuc(a1-4)]GlcNAc(b1-2)Man(a1-6)]Man(b1-4)GlcNAc(b1-4)[Fuc(a1-6)]GlcNAc(b1-4)[Fuc(a1-6)]GlcNAc", "outline": "as §1"}, "[17]": {"biological_target": "Fuc(a1-2)Gal(b1-3)[Fuc(a1-4)]GlcNAc(b1-3)[Fuc(a1-3)[Gal(b1-4)]GlcNAc(b1-6)]Gal(b1-4)Glc", "outline": "as §1"}, "[18]": {"biological_target": "Fuc(a1-2)Gal(b1-3)[Fuc(a1-4)]GlcNAc(b1-3)[Gal(b1-4)GlcNAc(b1-6)]Gal(b1-4)Glc", "outline": "as §1"}, "Fuc(a1-2)Gal(b1-4)Glc": {"biological_target": "Fuc(a1-2)Gal(b1-4)Glc", "outline": "as §1"}, "Fuc(a1-2)Gal(b1-4)Glc6S": {"biological_target": "Fuc(a1-2)Gal(b1-4)Glc6S", "outline": "as §1"}, "Fuc(a1-2)Gal(b1-4)GlcNAc": {"biological_target": "Fuc(a1-2)Gal(b1-4)GlcNAc", "outline": "as §1"}, "[19]": {"biological_target": "Fuc(a1-2)Gal(b1-4)GlcNAc(b1-2)Man", "outline": "as §1"}, "[20]": {"biological_target": "Fuc(a1-2)Gal(b1-4)GlcNAc(b1-2)Man(a1-3)[Fuc(a1-2)Gal(b1-4)GlcNAc(b1-2)Man(a1-6)]Man(b1-4)GlcNAc(b1-4)GlcNAc", "outline": "as §1"}, "[21]": {"biological_target": "Fuc(a1-2)Gal(b1-4)GlcNAc(b1-2)Man(a1-3)[Fuc(a1-2)Gal(b1-4)GlcNAc(b1-2)Man(a1-6)]Man(b1-4)GlcNAc(b1-4)[Fuc(a1-6)]GlcNAc", "outline": "as §1"}, "[22]": {"biological_target": "Fuc(a1-2)Gal(b1-4)GlcNAc(b1-2)[Fuc(a1-2)Gal(b1-4)GlcNAc(b1-4)]Man(a1-3)[Fuc(a1-2)Gal(b1-4)GlcNAc(b1-2)Man(a1-6)]Man(b1-4)GlcNAc(b1-4)GlcNAc", "outline": "as §1"}, "[23]": {"biological_target": "Fuc(a1-2)Gal(b1-4)GlcNAc(b1-3)Gal(b1-4)GlcNAc", "outline": "as §1"}, "[24]": {"biological_target": "Fuc(a1-2)Gal(b1-4)GlcNAc(b1-3)Gal(b1-4)GlcNAc(b1-2)Man(a1-3)[Fuc(a1-2)Gal(b1-4)GlcNAc(b1-3)Gal(b1-4)GlcNAc(b1-2)Man(a1-6)]Man(b1-4)GlcNAc(b1-4)GlcNAc", "outline": "as §1"}}, "note": "Some of the results follow.", "data": [{"binder": "B1", "values": [{"measurement": "glycan array binding signal (z-score)", "setting": "Fuc(a1-2)Gal", "result": -0.209}, {"measurement": "glycan array binding signal (z-score)", "setting": "Fuc(a1-2)Gal(b1-3)GalNAc", "result": 0.849}, {"measurement": "glycan array binding signal (z-score)", "setting": "[1]", "result": -0.448}, {"measurement": "glycan array binding signal (z-score)", "setting": "[2]", "result": 0.168}, {"measurement": "glycan array binding signal (z-score)", "setting": "[3]", "result": -1.16}, {"measurement": "glycan array binding signal (z-score)", "setting": "[4]", "result": -0.759}, {"measurement": "glycan array binding signal (z-score)", "setting": "[5]", "result": -0.528}, {"measurement": "glycan array binding signal (z-score)", "setting": "Fuc(a1-2)Gal(b1-3)GlcNAc", "result": -0.382}, {"measurement": "glycan array binding signal (z-score)", "setting": "[6]", "result": 1.38}, {"measurement": "glycan array binding signal (z-score)", "setting": "[7]", "result": 0.525}, {"measurement": "glycan array binding signal (z-score)", "setting": "[8]", "result": -0.408}, {"measurement": "glycan array binding signal (z-score)", "setting": "[9]", "result": 0.048}, {"measurement": "glycan array binding signal (z-score)", "setting": "[10]", "result": 1.22}, {"measurement": "glycan array binding signal (z-score)", "setting": "[11]", "result": -0.141}, {"measurement": "glycan array binding signal (z-score)", "setting": "[12]", "result": 0.175}, {"measurement": "glycan array binding signal (z-score)", "setting": "[13]", "result": 0.134}, {"measurement": "glycan array binding signal (z-score)", "setting": "[14]", "result": 1.7}, {"measurement": "glycan array binding signal (z-score)", "setting": "[15]", "result": 1.5}, {"measurement": "glycan array binding signal (z-score)", "setting": "[16]", "result": 0.063}, {"measurement": "glycan array binding signal (z-score)", "setting": "[17]", "result": -0.406}, {"measurement": "glycan array binding signal (z-score)", "setting": "[18]", "result": -0.343}, {"measurement": "glycan array binding signal (z-score)", "setting": "Fuc(a1-2)Gal(b1-4)Glc", "result": -0.491}, {"measurement": "glycan array binding signal (z-score)", "setting": "Fuc(a1-2)Gal(b1-4)Glc6S", "result": -0.029}, {"measurement": "glycan array binding signal (z-score)", "setting": "Fuc(a1-2)Gal(b1-4)GlcNAc", "result": -0.379}, {"measurement": "glycan array binding signal (z-score)", "setting": "[19]", "result": -0.192}, {"measurement": "glycan array binding signal (z-score)", "setting": "[20]", "result": -0.502}, {"measurement": "glycan array binding signal (z-score)", "setting": "[21]", "result": -0.484}, {"measurement": "glycan array binding signal (z-score)", "setting": "[22]", "result": -0.389}, {"measurement": "glycan array binding signal (z-score)", "setting": "[23]", "result": -0.613}, {"measurement": "glycan array binding signal (z-score)", "setting": "[24]", "result": -0.419}]}]}
